In US20100292337A1, “Polar Hydrophilic Prodrugs of Amphetamine and Other Stimulants and Processes for Making and Using the Same” (priority 2007, published 2010):

Assay: Example 17: oral pharmacokinetic study of Cit-Amp, hCit-Amp and Lys-Amp at seven dosage levels, plasma d-amphetamine by LC-MS/MS
Settings: oral gavage, rat, released d-amphetamine

Substance | AUC (dose 0.5 mg/kg d-Amp content) [ng·h/mL] | Cmax (dose 0.5 mg/kg d-Amp content) [ng/mL] | AUC (dose 4.5 mg/kg d-Amp content) [ng·h/mL] | Cmax (dose 4.5 mg/kg d-Amp content) [ng/mL] | AUC (dose 10 mg/kg d-Amp content) [ng·h/mL] | Cmax (dose 10 mg/kg d-Amp content) [ng/mL]
l-homocitrulline-d-amphetamine hydrochloride [hCit-Amp] | 99 | 20.1 | 755 | 124.2 | 1400 | 216.4
l-citrulline-d-amphetamine hydrochloride [Cit-Amp] | 122 | – | 721 | – | 1689 | –
l-lysine-d-amphetamine [Lys-Amp, reference compound] | 131 | 22.7 | 873 | 152.0 | 3162 | 554.4
